The results in this text go back to patent US20230272055A1, “ANTI-MUTANT CALRETICULIN (CALR) ANTIBODIES AND USES THEREOF” (Incyte Corporation, priority 2021, published 2023).

The target in test [1] is T1, recombinant MBP-mutCALR Type 1 fusion protein (Homo sapiens, UniProt P27797, DEL40-40).
T1 construct: His6 (N); purchased Cepter (cepterbiopartners.com), custom made
Put plainly: Biacore SPR binding kinetics, Experiment 2 (parental and variant antibodies). Particulars: Biacore 8K, 25° C., 1:1 binding model. (In general: Surface plasmon resonance follows binding to a sensor surface in real time, without labels.)

The subject of test [2] is Ba/F3 cells transfected with MPL and mutCALR Type 1. Description: Inhibition of cell proliferation, CellTiter-Glo 72 hours, mutCALR Type 1. Particulars: Ba/F3 engineered cells, high-throughput primary screening. It counts as cell-based. The essentials: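 Ba/F3 cells expressing MPL plus mutCALR Type 1 (52 bp deletion) or Type 2 (5 bp insertion) were seeded at 5,000 cells/well in RPMI 1640 + 2% FBS with anti-mutCALR antibodies. After 72 h, viability was read by CellTiter-Glo luminescence.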

The test system of test [3] is CD34+ cells from MPN patients carrying the CALR mutation. Put plainly: Differentiation of CD34+ cells into megakaryocytes (CD41+CD42b+, flow cytometry). The settings on record: 6 days; dose-dependent; FIG. 19B. It counts as cell-based, human. As to the method: CD34^+ cells isolated from MPN patients carrying the CALR mutation were used to characterize the ability of an anti-mutCALR antibody to inhibit the mutCALR-derived oncogenic function. Peripheral blood mononuclear cells (PBMCs) were isolated from non-identified blood samples from MPN patients by Ficoll gradient extraction (Fisher Scientific) and CD34^+ cells were enriched using magnetic enrichment (Miltenyi Biotec). CD34^+ cells were cultured for seven days in SFEM-II media ([…] Technologies) containing hSCF, hFLT3L, TPO, LDL2698, SR1, and UM171.
To evaluate the ability of antibodies to inhibit mutCALR oncogenic function and imbalanced proliferation of megakaryocytes, CD34^+ cells (50,000 cells/well) were added to a 12-well plate with SFEM-II supplemented with hSCF, hGCSF, hIL3, and hIL6 and treated with a mutCALR antibody or isotype control for 6 days. Cells were stained and analyzed by flow cytometry (LSRFortessam X-20 analyzer, BD Biosciences). Antibodies used were: APC anti-human CD38 antibody (BioLegend), FITC anti-human lineage cocktail (BioLegend), PE/Cyanine7 anti-human CD34 antibody (BioLegend), PE anti-human CD41 antibody (BioLegend), APC mouse anti-human CD42b antibody (BD Pharmingen). Megakaryocytes were identified as the CD41^+CD42b^+ cells.
On the technique in general: A flow cytometer gives signals particle by particle.

Test [4] has as its target T2, recombinant MBP-mutCALR Type 2 fusion protein (Homo sapiens, UniProt P27797).
T2 construct: His6 (N); purchased Cepter (cepterbiopartners.com), custom made
Put plainly: Biacore SPR binding kinetics, Experiment 3. As to the method: Experiment 2: Recombinant MBP-mutCALR Type 1 fusion protein was custom made at Cepter (cepterbiopartners.com). Data for the interaction of antibodies with recombinant mutCALR protein were collected at 25° C. on a Biacore 8K instrument (Cytiva, Marlborough, Mass.), and all reagents were obtained from Cytiva unless otherwise specified. The experiments were conducted using Tris-buffered saline (pH 7.2), 0.005% Surfactant P20, 1 mM CaCl2) as running buffer. To prepare the capture surfaces, anti-human IgG (Fc) antibodies (Product #29234600) was amine-coupled onto a CM4 chip (Product #BR100534) under standard conditions using an Amine Coupling Kit (Product #BR100050). Anti-mutCALR antibodies were captured onto the chip surface by injecting over flow cell 2 only at a flow rate of 10 μL/min for 30 seconds. Typical capture levels were in the range of 15-25RU. Recombinant MBP-mutCALR Type 1 fusion protein was prepared at nominal concentrations of 0, 0.75, 2.22, 6.67, 20, and 60 nM and injected over both flow cells 1 and 2 for 150 seconds at a flow rate of 69 L/min, followed by a 230-second dissociation phase at the same flow rate. The kinetics parameters were obtained by applying 1:1 binding model to fit the data from multiple-cycle injection experiments using Biacore Insight Evaluation software.
Experiment 3: The amino acid sequence of recombinant MBP-mutCALR Type 2 fusion protein used in this Experiment 3 is:
Recombinant MBP-mutCALR Type 2 fusion protein was custom made at Cepter (cepterbiopartners.com). Data for the interaction of antibodies with recombinant MBP-mutCALR Type 2 fusion protein were collected as described in Experiment 2. The chip used was a Biacore Series S Sensor Chip CM4 with anti-huFc immobilized onto the chip surface. Recombinant MBP-mutCALR Type 2 fusion protein was prepared at nominal concentrations of 1.1, 3.3, 10, 30, and 90 nM. Typical capture levels were in the range of 16-37RU.

B1: 65 (antibody)
heavy: EVQLVQSGAEVKKPGASVKVSCKVSGYTLTELSMQWVRQAPGKGLEWMGGFDPDDGETMYAEKFQGRLTVTEDTSTDTVYMELRSLTSEDTALYFCATSPGYDFFDYWGQGTLVTVSSASTKGPSVFPLAPSSKSTSGGTAALGCLVKDYFPEPVTVSWNSGALTSGVHTFPAVLQSSGLYSLSSVVTVPSSSLGTQTYICNVNHKPSNTKVDKRV[omitted - human IgG1 Fc with changes]
light: SYVLTQPPSVSVAPGKTARITCTGTSSDVGGYNYVSWYQQKPGQAPVLVVYEVSNRPSGIPERFSGSNSGNTATLTISRVEAGDEADYYCQVWDSSNDLLIFGGGTKLTVLGQPKAAPSVTLFPPSSEELQANKATLVCLISDFYPGAVTVAWKADSSPVKAGVETTTPSKQSNNKYAASSYLSLTPEQWKSHRSYSCQVTHEGSTVEKTVAPTECS
For the molecule B1, in test [1], the “ka” value was 4.6e+06 M⁻¹ s⁻¹ and the “kd” value stood at 0.00231 s⁻¹. The “IC50 inhibition of cell proliferation” value in test [2] is 0.3 ng/mL. For the same molecule, the “differentiation of mutCALR CD34+ cells into mature megakaryocytes” value in test [3] is on record as “selectively prevented the differentiation”. Besides, in test [4], the “ka” value is 668000 M⁻¹ s⁻¹ and the “kd” value came to 0.00424 s⁻¹.

B2: 74 (antibody)
heavy: EVQLVQSGAEVKKPGASVKVSCKVSGYTLTELSMQWVRQAPGKGLEWMGGFDPDDAETMYAEKFQGRLTVTEDTSTDTVYMELSSLRSEDTAVYFCATSPGYDFFDYWGQGTLVTVSSASTKGPSVFPLAPSSKSTSGGTAALGCLVKDYFPEPVTVSWNSGALTSGVHTFPAVLQSSGLYSLSSVVTVPSSSLGTQTYICNVNHKPSNTKVDKRV[omitted - human IgG1 Fc with changes]
light: B1 light
Consider B2, for which the figures for the “ka” value in test [1] and in test [4] were 1.29e+06 M⁻¹ s⁻¹ and 854000 M⁻¹ s⁻¹, respectively. Also, the “kd” value in test [1] came to 0.00153 s⁻¹; in test [4], 0.00579 s⁻¹. For the same molecule, in test [2], the “IC50 inhibition of cell proliferation” value turned out to be 1 ng/mL. Besides, in test [3], the “differentiation of mutCALR CD34+ cells into mature megakaryocytes” value is “selectively prevented the differentiation”.
